Laboratory results: publication PMC7332293
Results are given in words; binding and its absence hold for the method and conditions named. In cells and extracts the contact can be indirect. Some binding calls cover weakened binding; strength is not graded here. Values belong to the binder of their own block, whether it stands above or below them.

Amino acid sequences for entries named in this document (tags omitted).
UniProt Q9BY78: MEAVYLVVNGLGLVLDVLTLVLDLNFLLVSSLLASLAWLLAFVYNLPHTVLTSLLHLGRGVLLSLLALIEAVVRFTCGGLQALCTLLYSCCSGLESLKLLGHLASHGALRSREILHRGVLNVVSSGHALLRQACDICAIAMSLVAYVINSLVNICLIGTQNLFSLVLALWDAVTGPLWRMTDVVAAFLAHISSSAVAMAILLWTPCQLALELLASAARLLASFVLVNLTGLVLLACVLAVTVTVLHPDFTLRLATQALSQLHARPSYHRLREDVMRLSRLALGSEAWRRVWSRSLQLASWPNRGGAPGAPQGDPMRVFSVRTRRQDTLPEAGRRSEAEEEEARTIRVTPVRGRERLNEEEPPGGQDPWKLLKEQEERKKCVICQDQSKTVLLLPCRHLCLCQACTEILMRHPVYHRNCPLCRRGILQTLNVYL
UniProt Q86TM6: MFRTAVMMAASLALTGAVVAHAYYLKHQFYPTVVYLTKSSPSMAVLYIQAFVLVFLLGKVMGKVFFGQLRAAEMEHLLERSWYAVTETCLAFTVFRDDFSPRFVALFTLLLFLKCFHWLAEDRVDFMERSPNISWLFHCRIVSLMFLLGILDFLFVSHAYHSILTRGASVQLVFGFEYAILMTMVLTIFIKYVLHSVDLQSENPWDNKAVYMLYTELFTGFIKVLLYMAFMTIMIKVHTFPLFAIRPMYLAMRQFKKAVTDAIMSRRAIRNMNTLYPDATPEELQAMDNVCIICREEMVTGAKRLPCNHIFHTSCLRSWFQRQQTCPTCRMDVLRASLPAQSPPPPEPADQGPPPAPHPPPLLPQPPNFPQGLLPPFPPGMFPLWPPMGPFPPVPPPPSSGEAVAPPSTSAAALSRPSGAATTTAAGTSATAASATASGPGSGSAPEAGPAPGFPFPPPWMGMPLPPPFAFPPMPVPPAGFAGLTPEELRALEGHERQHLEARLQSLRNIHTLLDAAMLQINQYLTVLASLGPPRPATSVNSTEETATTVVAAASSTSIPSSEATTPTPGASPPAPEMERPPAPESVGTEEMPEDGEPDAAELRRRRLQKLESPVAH

Tests used:
FH-RNF26WT (human) = FH-RNF26WT (human) (UniProt Q9BY78); assay: co-sedimentation; velocity sedimentation of 1% LMNG lysates of FH-RNF26WT cells on a 5-30% sucrose gradient (39,000 rpm, 16 hr, 4°C); 13 fractions, TCA-precipitated, western blot
[1] = biological target: endogenous Hrd1 (human (endogenous in Flp-In293)) (UniProt Q86TM6); assay: co-IP; endogenous Hrd1 (anti-Hrd1) or DOX-induced Hrd1-FH (anti-FLAG) from lysates prepared in 1% LMNG; western blot of endogenous cofactors
Hrd1-FH (human) = Hrd1-FH (human) (UniProt Q86TM6); assay: as above
Hrd1-FH (human), Q86TM6 = assay: as above; conditions: remark: other sources report otherwise
[2] = biological target: endogenous Hrd1 (human (endogenous in Flp-In293)), Q86TM6; assay: as above; conditions: remark: other sources report otherwise

B1: AUP1 (endogenous) (protein, UniProt Q9Y679 1-410)
chain: MELPSGPGPERLFDSHRLPGDCFLLLVLLLYAPVGFCLLVLRLFLGIHVFLVSCALPDSVLRRFVVRTMCAVLGLVARQEDSGLRDHSVRVLISNHVTPFDHNIVNLLTTCSTPLLNSPPSFVCWSRGFMEMNGRGELVESLKRFCASTRLPPTPLLLFPEEEATNGREGLLRFSSWPFSIQDVVQPLTLQVQRPLVSVTVSDASWVSELLWSLFVPFTVYQVRWLRPVHRQLGEANEEFALRVQQLVAKELGQTGTRLTPADKAEHMKRQRHPRLRPQSAQSSFPPSPGPSPDVQLATLAQRVKEVLPHVPLGVIQRDLAKTGCVDLTITNLLEGAVAFMPEDITKGTQSLPTASASKFPSSGPVTPQPTALTFAKSSWARQESLQERKQALYEYARRRFTERRAQEAD
binding (FH-RNF26WT (human)): binds

B3: Herp, Q15011 1-391 (protein)
chain: MESETEPEPVTLLVKSPNQRHRDLELSGDRGWSVGHLKAHLSRVYPERPRPEDQRLIYSGKLLLDHQCLRDLLPKQEKRHVLHLVCNVKSPSKMPEINAKVAESTEEPAGSNRGQYPEDSSSDGLRQREVLRNLSSPGWENISRPEAAQQAFQGLGPGFSGYTPYGWLQLSWFQQIYARQYYMQYLAATAASGAFVPPPSAQEIPVVSAPAPAPIHNQFPAENQPANQNAAPQVVVNPGANQNLRMNAQGGPIVEEDDEINRDWLDWTYSAATFSVFLSILYFYSSLSRFLMVMGATVVMYLHHVGWFPFRPRPVQNFPNDGPPPDVVNQDPNNNLQEGTDPETEDPNHLPPDRDVLDGEQTSPSFMSTAWLVFKTFFASLLPEGPPAIAN
binding (Hrd1-FH (human), Q86TM6): binds | binding [2]: binds

B4: FAF2/UBXD8 (endogenous) (protein, UniProt Q96CS3 1-445)
chain: MAAPEERDLTQEQTEKLLQFQDLTGIESMDQCRHTLEQHNWNIEAAVQDRLNEQEGVPSVFNPPPSRPLQVNTADHRIYSYVVSRPQPRGLLGWGYYLIMLPFRFTYYTILDIFRFALRFIRPDPRSRVTDPVGDIVSFMHSFEEKYGRAHPVFYQGTYSQALNDAKRELRFLLVYLHGDDHQDSDEFCRNTLCAPEVISLINTRMLFWACSTNKPEGYRVSQALRENTYPFLAMIMLKDRRMTVVGRLEGLIQPDDLINQLTFIMDANQTYLVSERLEREERNQTQVLRQQQDEAYLASLRADQEKERKKREERERKRRKEEEVQQQKLAEERRRQNLQEEKERKLECLPPEPSPDDPESVKIIFKLPNDSRVERRFHFSQSLTVIHDFLFSLKESPEKFQIEANFPRRVLPCIPSEEWPNPPTLQEAGLSHTEVLFVQDLTDE
binding (FH-RNF26WT (human)): binds

B6: FAM8A1 (protein, UniProt Q9UBU6 1-413)
chain: MAEGPEEARGHPPGQDDGGGDHEPVPSLRGPPTTAVPCPRDDPQAEPQAPGRPTAPGLAAAAAADKLEPPRELRKRGEAASGSGAELQEQAGCEAPEAAAPRERPARLSAREYSRQVHEWLWQSYCGYLTWHSGLAAFPAYCSPQPSPQSFPSGGAAVPQAAAPPPPQLGYYNPFYFLSPGAAGPDPRTAAGISTPAPVAGLGPRAPHVQASVRATPVTRVGSAAPSRSPSETGRQAGREYVIPSLAHRFMAEMVDFFILFFIKATIVLSIMHLSGIKDISKFAMHYIIEEIDEDTSMEDLQKMMVVALIYRLLVCFYEIICIWGAGGATPGKFLLGLRVVTCDTSVLIAPSRVLVIPSSNVSITTSTIRALIKNFSIASFFPAFITLLFFQHNRTAYDIVAGTIVVKRNGVR
binding [1]: binds | binding (Hrd1-FH (human)): binds

Second part, the binder after the results:

binding [1]: binds | binding (Hrd1-FH (human)): binds
B2: OS-9 (protein, UniProt Q13438 26-667)
chain: GGVGSLNLEELSEMRYGIEILPLPVMGGQSQSSDVVIVSSKYKQRYECRLPAGAIHFQREREEETPAYQGPGIPELLSPMRDAPCLLKTKDWWTYEFCYGRHIQQYHMEDSEIKGEVLYLGYYQSAFDWDDETAKASKQHRLKRYHSQTYGNGSKCDLNGRPREAEVRFLCDEGAGISGDYIDRVDEPLSCSYVLTIRTPRLCPHPLLRPPPSAAPQAILCHPSLQPEEYMAYVQRQADSKQYGDKIIEELQDLGPQVWSETKSGVAPQKMAGASPTKDDSKDSDFWKMLNEPEDQAPGGEEVPAEEQDPSPEAADSASGAPNDFQNNVQVKVIRSPADLIRFIEELKGGTKKGKPNIGQEQPVDDAAEVPQREPEKERGDPERQREMEEEEDEDEDEDEDEDERQLLGEFEKELEGILLPSDRDRLRSEVKAGMERELENIIQETEKELDPDGLKKESERDRAMLALTSTLNKLIKRLEEKQSPELVKKHKKKRVVPKKPPPSPQPTEEDPEHRVRVRVTKLRLGGPNQDLTVLEMKRENPQLKQIEGLVKELLEREGLTAAGKIEIKIVRPWAEGTEEGARWLTDEDTRNLKEIFFNILVPGAEEAQKERQRQKELESNYRRVWGSPGGEGTGDLDEFDF

binding (Hrd1-FH (human), Q86TM6): binds | binding [2]: binds
B5: UBE2J1, Q9Y385 1-318 (enzyme)
chain: METRYNLKSPAVKRLMKEAAELKDPTDHYHAQPLEDNLFEWHFTVRGPPDSDFDGGVYHGRIVLPPEYPMKPPSIILLTANGRFEVGKKICLSISGHHPETWQPSWSIRTALLAIIGFMPTKGEGAIGSLDYTPEERRALAKKSQDFCCEGCGSAMKDVLLPLKSGSDSSQADQEAKELARQISFKAEVNSSGKTISESDLNHSFSLTDLQDDIPTTFQGATASTSYGLQNSSAASFHQPTQPVAKNTSMSPRQRRAQQQSQRRLSTSPDVIQGHQPRDNHTDHGGSAVLIVILTLALAALIFRRIYLANEYIFDFEL
